Measurements as given in PubChem BioAssay (NCI).
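In this assay, cells in 96-well plates receive the compound at five concentrations for 48 hours. Endpoints are linearly interpolated between the surrounding concentrations. GI50 = concentration required for 50% inhibition of growth. TGI: total growth inhibition.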

Tested on: NCI-H322M lung
Experiment: NCI anticancer screen, dose series, 48 h

Row | Compound | GI50 [µM] | TGI [µM]
1 | COc1ccc2c(c1)c(CC(=O)[Se]CC#N)c(C)n2C(=O)c1ccc(Cl)cc1 | 2.41 | 7.4
2 | CC(=O)N(O)CCCCCNC(=O)CCC(=O)N(O)CCCCCNC(=O)CCC(=O)N(O)CCCCCN(CCCCCCCCCC[P+](c1ccccc1)(c1ccccc1)c1ccccc1)CCCCCCCCCC[P+](c1ccccc1)(c1ccccc1)c1ccccc1 | 4.16 | 16.5
3 | O=C(Nc1ccccc1)Nc1nc2ccc([N+](=O)[O-])cc2s1 | 2.75 | 13
